This is one part of the list.

The subject of the experiment is S. aureus RN4220. Kind of experiment: growth inhibition call (relative growth <= 0.2). The note with it: 50 µM.
Regarding `CC(C)NC(=O)Nc1ccc2c(c1)CC(=O)N([C@@H](C)CO)C[C@@H](C)[C@H](CN(C)Cc1ccc3c(c1)OCO3)O2`, the growth inhibition call is “inactive”. Consider `CO[C@@H](CN(C)S(=O)(=O)c1ccc(Cl)cc1)[C@H](C)CN([C@@H](C)CO)S(=O)(=O)c1cccc(Cl)c1`, for which the growth inhibition call was “inactive”.

As to `COc1ccc(CNC(=O)C[C@@H]2C[C@H]3c4cc(NS(=O)(=O)c5ccc(F)cc5)ccc4O[C@H]3[C@H](CO)O2)cc1`, the growth inhibition call was “inactive”. Take `Cc1ccc(S(=O)(=O)N(C)C[C@@H]2OCCCC[C@H](C)Oc3ccc(NC(=O)Nc4ccc(C(F)(F)F)cc4)cc3C(=O)N([C@@H](C)CO)C[C@@H]2C)cc1`: the growth inhibition call is “inactive”. In the case of `C[C@H](CO)N1C[C@H](C)[C@H](CN(C)Cc2ccc(-c3ccccc3)cc2)Oc2ccc(NC(=O)Nc3ccccc3)cc2CC1=O`, the growth inhibition call was “inactive”. With `COc1ccc(S(=O)(=O)N(C)C[C@@H]2OCCCC[C@@H](C)Oc3ccc(NC(=O)Nc4ccc(C(F)(F)F)cc4)cc3C(=O)N([C@H](C)CO)C[C@@H]2C)cc1`, the growth inhibition call is “inactive”. As for `C[C@H](CO)N1C[C@H](C)[C@@H](CN(C)S(=O)(=O)c2ccccc2F)Oc2ncc(Br)cc2C1=O`, the growth inhibition call is “inactive”. As for `C[C@H](CO)N1C[C@H](C)[C@@H](CN(C)C(=O)NC2CCCCC2)OCCCC[C@H](C)Oc2ccc(NC(=O)NC3CCCCC3)cc2C1=O`, the growth inhibition call is “inactive”.

For `OCCN1C[C@H](O)[C@@H](O)[C@H](O)[C@H]1CO`, the growth inhibition call is “inactive”.

For the compound `CC1=C(/C=C/C(C)=C/C=C/C(C)=C\C(=O)O)C(C)(C)CCC1`, the growth inhibition call was “inactive”. In the case of `COc1cccc(NC(=O)N(C)C[C@H]2Oc3cc(C#Cc4ccncc4)ccc3S(=O)(=O)N([C@@H](C)CO)C[C@H]2C)c1`, the growth inhibition call was “inactive”. With `O=C(C[C@H]1CC[C@H]2[C@@H](COC[C@H](O)CN2C(=O)c2cccnc2)O1)NCc1ccc(-c2ccccc2)cc1`, the growth inhibition call was “inactive”. As for `C[C@@H]1CCCCO[C@@H](CN(C)C(=O)Nc2ccccc2)[C@H](C)CN([C@@H](C)CO)C(=O)c2cc(NS(=O)(=O)c3ccccc3)ccc2O1`, the growth inhibition call is “inactive”. Turning to `CC1(C)N=C(N)N=C(N)N1c1ccccc1`, the growth inhibition call was “inactive”. As for `C[C@@H]1CN([C@H](C)CO)C(=O)c2ccccc2-c2ccccc2CO[C@H]1CN(C)C(=O)Nc1cccc(F)c1`, the growth inhibition call was “inactive”. Take `C[C@H](CO)N1C[C@H](C)[C@H](CN(C)Cc2ccncc2)OCCCC[C@H](C)Oc2ccc(NS(C)(=O)=O)cc2C1=O`: the growth inhibition call was “inactive”. The value for `C[C@@H]1CCCCO[C@H](CN(C)S(=O)(=O)c2cn(C)cn2)[C@@H](C)CN([C@@H](C)CO)C(=O)c2cc(NS(C)(=O)=O)ccc2O1` was “inactive”. The value for `COc1ccc(S(=O)(=O)Nc2ccc3c(c2)C(=O)N([C@H](C)CO)C[C@H](C)[C@H](CN(C)C(=O)Nc2ccc(C(F)(F)F)cc2)OCCCC[C@@H](C)O3)cc1` was “inactive”; that for `C[C@@H]1CN([C@H](C)CO)C(=O)c2cccc(NS(=O)(=O)c3ccccc3)c2O[C@@H]1CN(C)C(=O)Nc1cccc2ccccc12` was “inactive”; that for `C[C@H]1CN([C@@H](C)CO)C(=O)c2cccc(NC(=O)Nc3cccc4ccccc34)c2O[C@H]1CN(C)Cc1ccc(Cl)c(Cl)c1` was “inactive”. Consider `Cc1cn(CCN2CCN(c3ccccc3-c3cc(C#N)cc(C(=O)NCCCN4CCCC4)c3)CC2)c2ccccc12`, for which the growth inhibition call is “inactive”. Consider `C[C@@H]1CCCCO[C@@H](CN(C)C(=O)NC2CCCCC2)[C@@H](C)CN([C@H](C)CO)C(=O)c2cc(NS(=O)(=O)c3ccc(Cl)cc3)ccc2O1`, for which the growth inhibition call is “inactive”. Next, `COCC(=O)Nc1ccc2c(c1)OC[C@@H](C)N(C(=O)Cc1cccnc1)C[C@H](C)[C@@H](OC)CN(C)C2=O`: “inactive”; `CCOC(=O)C(C#N)C1=NCCC1` (centres undefined): “inactive”; `C[C@H](CO)N1C[C@H](C)[C@@H](CN(C)C(=O)Nc2ccc3c(c2)OCO3)OCCCC[C@H](C)Oc2ccc(NC(=O)c3ccncc3)cc2C1=O`: “inactive”. As for `C[C@H](CO)N1C[C@H](C)[C@H](CN(C)Cc2ccc(C(=O)O)cc2)OCc2ccccc2-c2c(n(C)c3ccccc23)C1=O`, the growth inhibition call is “active”. With `C[C@@H]1CN([C@@H](C)CO)C(=O)Cc2cc(NC(=O)Cn3cnnn3)ccc2O[C@H]1CN(C)Cc1ccc(C(=O)Nc2ccccc2N)cc1`, the growth inhibition call is “inactive”. Take `C[C@@H]1CN([C@H](C)CO)C(=O)c2cc(NC(=O)Cc3cn(C)c4ccccc34)ccc2O[C@@H]1CN(C)Cc1ccc(C(=O)Nc2ccccc2N)cc1`: the growth inhibition call is “inactive”.

`COc1ccccc1S(=O)(=O)N1C[C@H](O)COC[C@H]2O[C@@H](CC(=O)O)CC[C@@H]21`: the growth inhibition call was “inactive”.

Values taken from the antibiotic and cytotoxicity screens of Wong et al. (2023).
